In EPA's CvTdb concentration-time database:
The source gives many values for each of these; only a part stands here.

What was measured:
Experiment in all cases: concentration in plasma after dosing
Rat [1] = details: dosed: Perfluorohexane-1-sulphonic acid – potassium salt, 4 mg/kg, Female, F344
Rat [2] = details: dosed: Perfluorohexane-1-sulphonic acid – potassium salt, 32 mg/kg, oral, Male, Harlan Sprague Dawley
Rat [3] = details: dosed: Perfluorohexane-1-sulphonic acid – potassium salt, 32 mg/kg, oral, Female, Harlan Sprague Dawley
Rat [4] = details: dosed: Perfluorohexane-1-sulphonic acid – potassium salt, 4 mg/kg, Female, F344; remark: listed apart in the source
Rat [5] = details: 3 h; dosed: Perfluorohexane-1-sulphonic acid – potassium salt; 16 mg/kg; oral; Female; F344
Rat [6] = details: dosed: Perfluorohexane-1-sulphonic acid – potassium salt, 4 mg/kg, Female, F344; remark: listed apart in the source
Rat [7] = details: dosed: Perfluorohexane-1-sulphonic acid – potassium salt, 4 mg/kg, Female, F344; remark: listed apart in the source
Rat [8] = details: dosed: Perfluorohexane-1-sulphonic acid – potassium salt, 32 mg/kg, oral, Male, Harlan Sprague Dawley; remark: listed apart in the source
Rat [9] = details: dosed: Perfluorohexane-1-sulphonic acid – potassium salt, 16 mg/kg, oral, Male, F344
Rat [10] = details: 192 h; dosed: Perfluorohexane-1-sulphonic acid – potassium salt; 16 mg/kg; oral; Female; Harlan Sprague Dawley
Rat [11] = details: 1200 h; dosed: Perfluorohexane-1-sulphonic acid – potassium salt; 16 mg/kg; oral; Male; Harlan Sprague Dawley
Rat [12] = details: 3 h; dosed: Fluorotelomer alcohol 8+2; 40 mg/kg; oral; Female; Harlan Sprague Dawley
Rat [13] = details: 3 h; dosed: Fluorotelomer alcohol 8+2; 48 mg/kg; oral; Male; Harlan Sprague Dawley
Rat [14] = details: dosed: Fluorotelomer alcohol 8+2, 24 mg/kg, oral, Male, Harlan Sprague Dawley
Rat [15] = details: dosed: Fluorotelomer alcohol 8+2, 48 mg/kg, oral, Male, Harlan Sprague Dawley
Rat [16] = details: dosed: Fluorotelomer alcohol 8+2, 48 mg/kg, oral, Male, Harlan Sprague Dawley; remark: listed apart in the source
Rat [17] = details: 0.5 h; dosed: Fluorotelomer alcohol 8+2; 80 mg/kg; oral; Female; Harlan Sprague Dawley
Rat [18] = details: 192 h; dosed: Fluorotelomer alcohol 8+2; 80 mg/kg; oral; Female; Harlan Sprague Dawley
Rat [19] = details: 9 h; dosed: Fluorotelomer alcohol 8+2; 80 mg/kg; oral; Female; Harlan Sprague Dawley
Rat [20] = details: 12 h; dosed: Fluorotelomer alcohol 8+2; 80 mg/kg; oral; Female; Harlan Sprague Dawley
Rat [21] = details: dosed: Fluorotelomer alcohol 8+2, 160 mg/kg, oral, Female, Harlan Sprague Dawley
Rat [22] = details: 0.5 h; dosed: Fluorotelomer alcohol 8+2; 80 mg/kg; oral; Female; Harlan Sprague Dawley; remark: listed apart in the source
Rat [23] = details: 6 h; dosed: Fluorotelomer alcohol 8+2; 24 mg/kg; oral; Male; Harlan Sprague Dawley
Rat [24] = details: dosed: Fluorotelomer alcohol 8+2, 48 mg/kg, oral, Male, Harlan Sprague Dawley; remark: listed apart in the source
Rat [25] = details: dosed: Isoeugenol, 70 mg/kg, oral, Female, F344/N
Rat [26] = details: dosed: Isoeugenol, 70 mg/kg, oral, Female, F344/N; remark: listed apart in the source
Rat [27] = details: dosed: Isoeugenol, 17 mg/kg, iv, Female, F344/N
Rat [28] = details: dosed: Isoeugenol, 140 mg/kg, oral, Female, F344/N
Rat [29] = details: dosed: Isoeugenol, 140 mg/kg, oral, Female, F344/N; remark: listed apart in the source
Rat [30] = details: 0.5 h; dosed: Isoeugenol; 17 mg/kg; iv; Male; F344/N
Rat [31] = details: dosed: Isoeugenol, 17 mg/kg, iv, Female, F344/N; remark: listed apart in the source
Rat [32] = details: dosed: Isoeugenol, 17 mg/kg, iv, Female, F344/N; remark: listed apart in the source
Rat [33] = details: dosed: Isoeugenol, 70 mg/kg, oral, Male, F344/N

O=S(=O)([O-])C(F)(F)C(F)(F)C(F)(F)C(F)(F)C(F)(F)C(F)(F)F.[K+] [Perfluorohexane-1-sulphonic acid – potassium salt]
Details	concentration in plasma [ng/mL]
Rat [1], 5 min	62600
Rat [1], 6 h	27200
Rat [1], 192 h	888
Rat [2], 1 h	88800
Rat [2], 12 h	206000
Rat [2], 864 h	38600
Rat [3], 6 h	145000
Rat [3], 96 h	25100
Rat [4], 0.25 h	50100
Rat [4], 12 h	22000
Rat [4], 288 h	119
Rat [6], 0.5 h	41700
Rat [6], 24 h	15600
Rat [7], 0.25 h	52900
Rat [7], 12 h	21700
Rat [7], 288 h	57.2
Rat [8], 0.25 h	38100
Rat [8], 6 h	185000
Rat [8], 528 h	60800
Rat [9], 0.25 h	40900
Rat [9], 864 h	30500

Details	concentration in plasma [ng/mL]
Rat [5]	94600
Rat [10]	5110
Rat [11]	11100

O=C(O)CCC(F)(F)C(F)(F)C(F)(F)C(F)(F)C(F)(F)C(F)(F)C(F)(F)F [Fluorotelomer acid 7+3]
Details	concentration in plasma [ng/mL]
Rat [12]	3180
Rat [13]	1280
Rat [17]	830
Rat [18]	529
Rat [19]	3080
Rat [20]	1600
Rat [22]	565
Rat [23]	560

Details	concentration in plasma [ng/mL]
Rat [14], 0.25 h	32.6
Rat [14], 24 h	425
Rat [15], 0.5 h	202
Rat [15], 9 h	500
Rat [16], 0.75 h	615
Rat [16], 12 h	782
Rat [21], 0.75 h	1220
Rat [21], 12 h	7150
Rat [24], 48 h	905
Rat [24], 192 h	413

C/C=C/c1ccc(O)c(OC)c1 [Isoeugenol]
Details	concentration in plasma [ng/mL]
Rat [25], 3 h	223
Rat [25], 5 min	1170
Rat [26], 1 h	342
Rat [26], 5 h	367
Rat [27], 5 h	20.7
Rat [27], 5 min	8280
Rat [28], 1.5 h	1240
Rat [28], 3 h	1320
Rat [29], 2 min	224
Rat [29], 8 h	254
Rat [31], 2 h	130
Rat [31], 2 min	9450
Rat [32], 0.5 h	895
Rat [32], 3 h	74.3
Rat [33], 0.75 h	148
Rat [33], 2 h	63.1

Details	concentration in plasma [ng/mL]
Rat [30]	1050
